From PubChem BioAssay AID1030 (National Center for Advancing Translational Sciences (NCATS), 2008)
Screen size: about 220,000 compounds; about 16,000 (7.3%) were called active. The shares of active, inactive and inconclusive entries below differ from those in the screen. Calls come from the whole dose curve; as a rule, active = well fitted inhibition curve with a large enough effect (not every such curve was filed as active); inconclusive = small, poorly fitted or top-dose-only effect, or another doubt; inactive = no such curve, though single readings can be large or run the other way. Potencies beside an inconclusive call are fits to weak or partial responses and may not hold up.

Each compound was assayed against Aldehyde dehydrogenase 1A1 (Homo sapiens) (UniProt P00352) (assay: qHTS Assay for Inhibitors of Aldehyde Dehydrogenase 1 (ALDH1A1)). Details: Purified ALDH1A1, NADH fluorescence, propionaldehyde substrate; series mostly up to 75.3 µM; activity, negative = inhibition: at the top concentration.
Chain of UniProt P00352 (P00352 whole entry, looked up): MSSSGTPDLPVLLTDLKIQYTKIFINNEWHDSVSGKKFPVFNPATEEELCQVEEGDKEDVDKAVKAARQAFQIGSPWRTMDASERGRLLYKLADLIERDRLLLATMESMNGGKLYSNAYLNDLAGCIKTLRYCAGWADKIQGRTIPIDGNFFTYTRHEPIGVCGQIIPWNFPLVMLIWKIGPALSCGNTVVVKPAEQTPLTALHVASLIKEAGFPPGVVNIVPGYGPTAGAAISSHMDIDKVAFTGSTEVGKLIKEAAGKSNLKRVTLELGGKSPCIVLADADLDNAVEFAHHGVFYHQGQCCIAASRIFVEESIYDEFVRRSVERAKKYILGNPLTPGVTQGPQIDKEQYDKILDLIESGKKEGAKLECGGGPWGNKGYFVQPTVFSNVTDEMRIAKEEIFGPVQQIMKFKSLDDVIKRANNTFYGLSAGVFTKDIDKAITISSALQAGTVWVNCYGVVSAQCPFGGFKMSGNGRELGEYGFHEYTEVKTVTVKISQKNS
Potency is the fitted concentration of half-maximal effect; tags give direction and shape of the fitted curve.
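Throughout, for activity, negative = inhibition: plate controls were no enzyme wells and a reference inhibitor.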

activity, negative = inhibition, inactive:
COc1cccc(C(=O)Nc2cccc(C(=O)NCC(C)C)c2)c1 6.47%, COc1ccccc1N(C)S(=O)(=O)c1ccc(C(=O)OCC(N)=O)cc1 5.93%, O=C(c1ccc(Cc2nc3ccccc3[nH]2)cc1)N1CCOCC1 -4.86%, S=C(NNc1nc(Nc2ccccc2)nc(N2CCCCC2)n1)NC1CCCCC1 -2.6%, Cc1ccc2nsnc2c1N -0.502%, c1ccc2c[n+](Cc3ccnc4ccccc34)ccc2c1 -0.795% [at 13.5 µM]

Potency, active:
O=C(C1=C(O)C(=O)N(CCOCCO)C1c1cccs1)c1cccs1 (configuration not stated) 2.24 µM, O=C(c1ccc(S(=O)(=O)N2CCCCCC2)cc1)N1CCN(c2ccccn2)CC1 12.6 µM, CC(C)CC(c1nnnn1Cc1ccccc1)N1CCN(C(=O)c2ccco2)CC1 (configuration not stated) 25.1 µM, Cc1nc(-c2ccccc2)sc1C(=O)NN 4.47 µM, CC1(C)CC(CCC(=O)NC(=S)Nc2ccccc2Cl)C(=O)O1 (configuration not stated) 12.6 µM, N#Cc1ccc(Oc2ccc(NC(=O)C3CC=CCC3C(=O)O)cc2)cc1 (configuration not stated) 0.501 µM, CCN(CC)C(=O)CN(c1ccc(C)cc1)S(=O)(=O)c1ccc(SC)cc1 14.1 µM

Potency, inconclusive:
Cc1cc(NC(=O)c2cc(-c3cccs3)on2)nn1Cc1ccc(Cl)cc1 39.8 µM [inhibitor, single point], CCOC(=O)Nc1nnc(/C=C/c2ccc(OC)cc2)s1 20 µM [inhibitor, partial curve], Cc1cccc(-n2ncc3c(NC4CCCCC4)ncnc32)c1 39.8 µM [inhibitor, single point], COc1cc2c(cc1OC)-c1cc(NC3CCCCC3)nc(=O)n1CC2 15.8 µM [inhibitor, partial curve], CCOc1ccccc1-c1ccc(C(=O)O)s1 31.6 µM [inhibitor, partial curve], COc1ccc(OC)c(NC(=O)c2ccccc2N(Cc2ccccc2)S(C)(=O)=O)c1 31.6 µM [inhibitor, single point], CC1CCC(NC(=O)C2CCC(CNS(=O)(=O)c3cccc4nsnc34)CC2)CC1 (configuration not stated) 2.82 µM [inhibitor, full curve, poor fit], Cc1cccc(C)c1OCC(=O)Nn1c(C)nc2ccccc2c1=O 20 µM [inhibitor, single point], CCN1CC=C2C(C#N)=C(N)C(C#N)(C#N)[C@H](c3ccoc3)[C@H]2C1 25.1 µM [inhibitor, single point]
